Assay results published in publication PMC10668032.
The list shows a part of the results. At the low end of the ranking the order means little.

These sequences were tested against SIX1 homeodomain (reference allele) (UniProt Q15475) (assay: universal protein binding microarray). Settings: Universal all-10-mer PBM (8x60K, AMADID 030236), 300 nM GST-tagged protein, Alexa Fluor 488 anti-GST; buffer, salt, pH and temperature not stated; high values mean tight binding; most listed sequences are background and not binding sites; double strand, one strand shown.
ATACGTAG was tested, and the binding signal was 0.276 E-score. For ACATGGCC, the binding signal was -0.126 E-score. GACAACTA was tested, and the binding signal was -0.295 E-score. In the case of CCGGCACC, the binding signal is reported as 0.186 E-score. Sequence CCAGTAGA has a binding signal of 0.0604 E-score. GCTACTAA showed a binding signal of 0.0109 E-score. AAAGAGTC was tested, and the binding signal was -0.345 E-score. In the case of CAATCGTA, the binding signal is reported as -0.092 E-score. CCCACCCG gave a binding signal of 0.159 E-score. Work on ATTGAAGC yielded a binding signal of -0.121 E-score. AACTGCTG gave a binding signal of -0.207 E-score. Work on TCTATCAA yielded a binding signal of -0.0326 E-score. For CCCTGCCC, the binding signal was -0.00646 E-score. AACAATGC showed a binding signal of -0.186 E-score. ATGATAAG gave a binding signal of 0.0638 E-score. Sequence GCAAGTTA has a binding signal of -0.225 E-score. Work on GCATTCTA yielded a binding signal of 0.035 E-score. Work on CCGACAGG yielded a binding signal of -0.0126 E-score. CAGTCATA gave a binding signal of -0.0309 E-score. CGTGTTCC gave a binding signal of 0.0379 E-score. CACCCGCA showed a binding signal of 0.141 E-score. ATTAAATC gave a binding signal of 0.0534 E-score. Work on AAGATTCT yielded a binding signal of -0.273 E-score. For ACAGGAGA, the binding signal was 0.028 E-score. With ACGTTATC the binding signal was 0.112 E-score. AAAGCACG was tested, and the binding signal was -0.0788 E-score. ACATAGGT showed a binding signal of 0.0555 E-score. CTGCAAGA was tested, and the binding signal was -0.0238 E-score. In the case of GATCATGC, the binding signal is reported as 0.242 E-score. With ACCCTGGG the binding signal was 0.0559 E-score. AATACATC was tested, and the binding signal was 0.204 E-score. With AATAGTCG the binding signal was 0.0223 E-score. Work on GCCGATCA yielded a binding signal of 0.229 E-score. CTATGACC was tested, and the binding signal was -0.0351 E-score. Sequence AAGCAGGC has a binding signal of -0.0711 E-score. Sequence GAGATACA has a binding signal of 0.332 E-score. In the case of AACCAGTG, the binding signal is reported as -0.0727 E-score. CAGGCCTC was tested, and the binding signal was -0.153 E-score. For AGGCCAGC, the binding signal was -0.332 E-score. CAAACCAG was tested, and the binding signal was -0.0636 E-score. AGCAGATG gave a binding signal of -0.0581 E-score. With CCTGGGAA the binding signal was 0.0474 E-score. In the case of CACTGTAC, the binding signal is reported as -0.047 E-score. With ACAAGACT the binding signal was -0.203 E-score. In the case of AGAACGAG, the binding signal is reported as -0.154 E-score. CGCTGTTA gave a binding signal of -0.117 E-score. GGCTTTGA showed a binding signal of -0.101 E-score. For AGTGCTGA, the binding signal was -0.186 E-score. For CCAATGGC, the binding signal was -0.179 E-score. With CGCTAGAG the binding signal was -0.00983 E-score. Sequence CCGCGCTA has a binding signal of -0.0437 E-score. CAGCTTCA showed a binding signal of -0.0909 E-score. AAAACTGG was tested, and the binding signal was -0.22 E-score. ATCTATCA was tested, and the binding signal was 0.19 E-score. Sequence AGCTAGGC has a binding signal of -0.134 E-score. Sequence ATCCTCTG has a binding signal of 0.276 E-score. AGAACCCG showed a binding signal of 0.102 E-score. Work on ACTCACCA yielded a binding signal of 0.0206 E-score. Sequence AAGCGTGG has a binding signal of -0.259 E-score. GAGGCTCC gave a binding signal of -0.314 E-score. Sequence TAATATTA has a binding signal of 0.161 E-score. CTAGGGCA showed a binding signal of -0.17 E-score. TCCCACGA was tested, and the binding signal was 0.0911 E-score. In the case of ATAGCGTG, the binding signal is reported as 0.0286 E-score. For TGATTCAA, the binding signal was -0.0501 E-score. TACAGAAA showed a binding signal of 0.00145 E-score. With CCTCACCA the binding signal was -0.0989 E-score. AGTGACTA was tested, and the binding signal was -0.0807 E-score. Work on ATTAATGA yielded a binding signal of 0.19 E-score. With GTTTCTGA the binding signal was -0.0298 E-score. In the case of TCACTCCA, the binding signal is reported as -0.146 E-score. Sequence CTGGCAAC has a binding signal of -0.101 E-score. For GTCGCTAA, the binding signal was -0.266 E-score. For GCTGGCTA, the binding signal was -0.103 E-score. ATTCTGAG was tested, and the binding signal was -0.0157 E-score. In the case of GGCATCCC, the binding signal is reported as -0.0557 E-score. In the case of CCTAATCG, the binding signal is reported as -0.0382 E-score. Work on ACCTCTTC yielded a binding signal of 0.116 E-score. ATCGCCTA gave a binding signal of 0.232 E-score. With ATCATCAA the binding signal was 0.199 E-score. AACAAATG was tested, and the binding signal was -0.204 E-score. Work on GACGTCTC yielded a binding signal of 0.163 E-score. GAAGTCAC showed a binding signal of -0.33 E-score. Work on CGTATTGA yielded a binding signal of 0.23 E-score. With GGGGGGCA the binding signal was -0.103 E-score. With AAATCTGT the binding signal was -0.214 E-score. GGACGTCC showed a binding signal of -0.108 E-score. Work on ACCGGTAC yielded a binding signal of 0.0184 E-score. For CCTCAGAA, the binding signal was -0.124 E-score. With ACAAGGAC the binding signal was -0.124 E-score. With ACTTGAAA the binding signal was -0.127 E-score. CCCGCTGA showed a binding signal of 0.0663 E-score. AGTCAACT showed a binding signal of -0.152 E-score. In the case of ATGAAGGC, the binding signal is reported as -0.0809 E-score. AACTGTCT showed a binding signal of -0.0278 E-score. AAGAGTAC showed a binding signal of -0.0921 E-score. In the case of ACTCTTTG, the binding signal is reported as -0.281 E-score. Work on GGTGCAAC yielded a binding signal of -0.0175 E-score. With CCAATGAA the binding signal was -0.17 E-score. CTCAAATC gave a binding signal of -0.152 E-score. With CCCCAACC the binding signal was -0.109 E-score. AAGTGGCT gave a binding signal of -0.254 E-score. AGGTCAGC was tested, and the binding signal was 0.0296 E-score. Work on GCTCGGAC yielded a binding signal of -0.197 E-score. CTGCAATA was tested, and the binding signal was 0.0192 E-score. In the case of GATTAATA, the binding signal is reported as 0.301 E-score. Work on ACGTTGGG yielded a binding signal of -0.151 E-score. Work on ACCCGAGG yielded a binding signal of 0.0485 E-score. Sequence CCTCGCAA has a binding signal of -0.143 E-score. GCACTACA showed a binding signal of -0.0588 E-score. AATGCGTC showed a binding signal of -0.221 E-score. With AAAAAGTG the binding signal was -0.24 E-score. AACCCACA gave a binding signal of 0.0233 E-score. Work on ACCCCCGA yielded a binding signal of 0.217 E-score. GATGCACA was tested, and the binding signal was -0.0648 E-score. In the case of AGTTTACG, the binding signal is reported as -0.138 E-score. For GGCCGGAA, the binding signal was -0.0656 E-score. For CAAGTGTA, the binding signal was 0.00636 E-score. With TGGTGGAA the binding signal was -0.125 E-score. With AACTTAAC the binding signal was -0.161 E-score. With ACGTAGTG the binding signal was -0.0157 E-score. CTTCCTAA gave a binding signal of -0.0104 E-score. AATCATGG gave a binding signal of -0.18 E-score. GACAGCCA was tested, and the binding signal was -0.165 E-score. AGCAGTCA was tested, and the binding signal was -0.314 E-score. Work on AAAGACAT yielded a binding signal of -0.23 E-score. Sequence AACTTGCA has a binding signal of -0.121 E-score. GCCAGGAA gave a binding signal of -0.112 E-score. AGAATATA gave a binding signal of 0.11 E-score. GGCGGAGA gave a binding signal of 0.0982 E-score. In the case of ATAATCCA, the binding signal is reported as 0.27 E-score. ATTGGTGA showed a binding signal of -0.034 E-score. In the case of AACTCACC, the binding signal is reported as -0.112 E-score. ACCCCCGT gave a binding signal of 0.0468 E-score. GCACTTAA showed a binding signal of -0.214 E-score. Work on CGGAACAA yielded a binding signal of 0.0488 E-score. CAAGGCTG was tested, and the binding signal was -0.127 E-score. With TCCGTGCA the binding signal was -0.0125 E-score. GCCATCGA gave a binding signal of -0.197 E-score. In the case of CATGGTTC, the binding signal is reported as 0.0116 E-score. With AAACGAAG the binding signal was -0.203 E-score. For CTTTGGGA, the binding signal was -0.0986 E-score. GCTGGGAC was tested, and the binding signal was -0.0965 E-score. Work on ACGAGTTG yielded a binding signal of -0.118 E-score. With CATGTATC the binding signal was 0.403 E-score. For CGTTTGAG, the binding signal was 0.0996 E-score. With AGAGTGTG the binding signal was -0.0948 E-score. Work on AACCGTCC yielded a binding signal of -0.292 E-score. GTAGTCAA gave a binding signal of -0.0087 E-score. Sequence CGCGTTAG has a binding signal of -0.0928 E-score. Sequence GCACATTA has a binding signal of -0.0153 E-score. In the case of CCCTAAGC, the binding signal is reported as -0.0531 E-score. Work on ATACGCAG yielded a binding signal of 0.314 E-score. TCCACACA was tested, and the binding signal was -0.0782 E-score. AGGCCTGC was tested, and the binding signal was -0.256 E-score. Sequence CGTTGCAG has a binding signal of -0.0761 E-score. ACGCCTAC showed a binding signal of -0.306 E-score. With AGGTCTTC the binding signal was -0.141 E-score. With AGCCATCA the binding signal was -0.211 E-score. In the case of ACTCTATC, the binding signal is reported as 0.111 E-score. In the case of ACTGGCGG, the binding signal is reported as -0.128 E-score. CGAATGGC gave a binding signal of -0.249 E-score. GATTCTCA gave a binding signal of 0.104 E-score. TCTCGAAA showed a binding signal of -0.0894 E-score. For GATATGAA, the binding signal was 0.259 E-score. For AGGCAGTC, the binding signal was -0.213 E-score. TAGACGGA was tested, and the binding signal was 0.137 E-score. With AGCCCCTG the binding signal was -0.0581 E-score. CGACGATA showed a binding signal of 0.342 E-score. AAAGCAGG showed a binding signal of -0.144 E-score. AGGAGAAT was tested, and the binding signal was 0.0659 E-score. CTGGGCGC gave a binding signal of -0.219 E-score.
